# Results from the supplement of paper PMC8728848.
# The other results are listed elsewhere or left out.
# Experiments:
# Assay in all cases: glycan array binding signal (z-score within array); higher = stronger binding
# Settings in all cases: glycan notation: IUPAC condensed, linker removed
# GalNAc(a1-3)GalNAc = target: GalNAc(a1-3)GalNAc
# Outline: (§1)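 Glycan array data came from 3228 arrays in the Consortium for Functional Glycomics database, and only arrays with an available protein sequence were kept. Glycan names were put into IUPAC-condensed notation, and columns mapping to the same glycan were averaged. The binding signal is a within-array Z-score, averaged across arrays of one protein sequence run at different concentrations or buffers and across linkers. A negative Z-score can be read as non-binding.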
# [1] = target: GalNAc(a1-3)GalNAc(b1-3)Gal(a1-4)Gal(b1-4)Glc
# Outline: as §1
# [2] = target: GalNAc(a1-3)GalNAc(b1-3)Gal(a1-4)Gal(b1-4)GlcNAc
# Outline: as §1
# GalNAc(b1-3)Gal = target: GalNAc(b1-3)Gal
# Outline: as §1
# [3] = target: GalNAc(b1-3)Gal(a1-4)Gal(b1-4)GlcNAc
# Outline: as §1
# [4] = target: GalNAc(b1-3)Gal(a1-4)Gal(b1-4)GlcNAc(b1-3)Gal(b1-4)Glc
# Outline: as §1
# [5] = target: GalNAc(b1-3)Gal(a1-6)Gal(b1-4)Glc
# Outline: as §1
# GalNAc(b1-3)GalNAc = target: GalNAc(b1-3)GalNAc
# Outline: as §1
# GalNAc(b1-3)GlcNAc = target: GalNAc(b1-3)GlcNAc
# Outline: as §1
# GalNAc(b1-4)Gal(b1-4)Glc = target: GalNAc(b1-4)Gal(b1-4)Glc
# Outline: as §1
# GalNAc(b1-4)GlcNAc = target: GalNAc(b1-4)GlcNAc
# Outline: as §1
# [6] = target: GalNAc(b1-4)GlcNAc(b1-2)Man
# Outline: as §1
# [7] = target: GalNAc(b1-4)GlcNAc(b1-2)Man(a1-3)[GalNAc(b1-4)GlcNAc(b1-2)Man(a1-6)]Man(b1-4)GlcNAc(b1-4)GlcNAc
# Outline: as §1
# [8] = target: GalNAc(b1-4)GlcNAc(b1-3)GalNAc(b1-4)GlcNAc
# Outline: as §1
# GalNAc(b1-4)GlcNAc6S = target: GalNAc(b1-4)GlcNAc6S
# Outline: as §1
# GalNAc(b1-6)GalNAc = target: GalNAc(b1-6)GalNAc
# Outline: as §1
# GalNAc3S(b1-4)GlcNAc = target: GalNAc3S(b1-4)GlcNAc
# Outline: as §1
# GalNAc3S(b1-4)GlcNAc3S = target: GalNAc3S(b1-4)GlcNAc3S
# Outline: as §1
# [9] = target: GalNAc3S(b1-4)[Fuc(a1-3)]GlcNAc
# Outline: as §1
# GalNAc4S6S(b1-4)GlcNAc = target: GalNAc4S6S(b1-4)GlcNAc
# Outline: as §1
# GalNAc6S(b1-4)GlcNAc = target: GalNAc6S(b1-4)GlcNAc
# Outline: as §1
# Glc(a1-4)Glc = target: Glc(a1-4)Glc
# Outline: as §1
# [10] = target: Glc(a1-4)Glc(a1-4)Glc(a1-4)Glc
# Outline: as §1
# Glc(a1-6)Glc(a1-6)Glc = target: Glc(a1-6)Glc(a1-6)Glc
# Outline: as §1
# [11] = target: Glc(a1-6)Glc(a1-6)Glc(a1-6)Glc
# Outline: as §1
# Glc(b1-4)Glc = target: Glc(b1-4)Glc
# Outline: as §1
# Glc(b1-6)Glc = target: Glc(b1-6)Glc
# Outline: as §1
# GlcA(b1-3)Gal = target: GlcA(b1-3)Gal
# Outline: as §1
# GlcA(b1-3)GlcNAc = target: GlcA(b1-3)GlcNAc
# Outline: as §1
# GlcA(b1-6)Gal = target: GlcA(b1-6)Gal
# Outline: as §1
# [12] = target: GlcA3S(b1-3)Gal(b1-4)GlcNAc(b1-2)Man
# Outline: as §1
# [13] = target: GlcA3S(b1-3)Gal(b1-4)GlcNAc(b1-3)Gal(b1-4)Glc
# Outline: as §1
# [14] = target: GlcNAc(a1-3)Gal(b1-4)GlcNAc
# Outline: as §1
# [15] = target: GlcNAc(a1-4)Gal(b1-3)GlcNAc
# Outline: as §1
# [16] = target: GlcNAc(a1-4)Gal(b1-4)GalNAc
# Outline: as §1
# [17] = target: GlcNAc(a1-4)Gal(b1-4)GlcNAc
# Outline: as §1
# [18] = target: GlcNAc(a1-4)Gal(b1-4)GlcNAc(b1-3)Gal(b1-4)Glc
# Outline: as §1
binder,measurement,setting,value
"Epa7 (Candida glabrata), Q6DTM6_CANGB (protein) MGSSHHHHHHSSGLVPRGSHMKDDYSSFLSNNNLGWTDPTEFPLGCSPNVTTPKNGLSMELYSYDLRKNGSYPCWDAAYLDPNYPRTGYKSHRLLAKVDGVTGNINFYYHATKGCTPEIDHLPASYNYPKPLTMTNFTMLLYGYFKPKVTGYHTFTISADDLLFVNFGAGNAFDCCKRESSADDFGNYQAYAVWGSQTAKDDLTVHLDAGLYYPIRIFFNNREYDAELSLTLKTESDSNPVIDFSDYFYSFDDTKDGCPGLVSYDTS",glycan array binding signal (z-score),GalNAc(a1-3)GalNAc,-0.255
same,glycan array binding signal (z-score),[1],-0.231
same,glycan array binding signal (z-score),[2],-0.208
same,glycan array binding signal (z-score),GalNAc(b1-3)Gal,-0.245
same,glycan array binding signal (z-score),[3],-0.251
same,glycan array binding signal (z-score),[4],-0.209
same,glycan array binding signal (z-score),[5],-0.238
same,glycan array binding signal (z-score),GalNAc(b1-3)GalNAc,-0.236
same,glycan array binding signal (z-score),GalNAc(b1-3)GlcNAc,-0.243
same,glycan array binding signal (z-score),GalNAc(b1-4)Gal(b1-4)Glc,-0.213
same,glycan array binding signal (z-score),GalNAc(b1-4)GlcNAc,-0.252
same,glycan array binding signal (z-score),[6],-0.243
same,glycan array binding signal (z-score),[7],-0.231
same,glycan array binding signal (z-score),[8],-0.241
same,glycan array binding signal (z-score),GalNAc(b1-4)GlcNAc6S,-0.241
same,glycan array binding signal (z-score),GalNAc(b1-6)GalNAc,-0.242
same,glycan array binding signal (z-score),GalNAc3S(b1-4)GlcNAc,-0.236
same,glycan array binding signal (z-score),GalNAc3S(b1-4)GlcNAc3S,-0.243
same,glycan array binding signal (z-score),[9],-0.223
same,glycan array binding signal (z-score),GalNAc4S6S(b1-4)GlcNAc,-0.231
same,glycan array binding signal (z-score),GalNAc6S(b1-4)GlcNAc,-0.237
same,glycan array binding signal (z-score),Glc(a1-4)Glc,-0.25
same,glycan array binding signal (z-score),[10],-0.236
same,glycan array binding signal (z-score),Glc(a1-6)Glc(a1-6)Glc,-0.256
same,glycan array binding signal (z-score),[11],-0.241
same,glycan array binding signal (z-score),Glc(b1-4)Glc,-0.255
same,glycan array binding signal (z-score),Glc(b1-6)Glc,-0.25
same,glycan array binding signal (z-score),GlcA(b1-3)Gal,-0.258
same,glycan array binding signal (z-score),GlcA(b1-3)GlcNAc,-0.224
same,glycan array binding signal (z-score),GlcA(b1-6)Gal,-0.188
same,glycan array binding signal (z-score),[12],-0.239
same,glycan array binding signal (z-score),[13],-0.237
same,glycan array binding signal (z-score),[14],-0.259
same,glycan array binding signal (z-score),[15],-0.231
same,glycan array binding signal (z-score),[16],-0.22
same,glycan array binding signal (z-score),[17],-0.196
same,glycan array binding signal (z-score),[18],-0.234
